# From the supplement of paper PMC8728848
# The list shows a part of the results.
# B1: LICBM33A (Lactococcus lactis), Q9CE94 (protein)
# chain: MKKLLTGLLVAAGLLSVSLLIKTDTVSAHGYVQSPPARGYQGQLDSQSLGWTAAFNIYGNVISNPQSLEAPKGFPECGPADGRIASANGGLGQIGDFVLDNQTSSRWKKTSISTGSNIFTWKYTAPHKTTKWHYYMTKTGWDQNAPLKHSELELIGTINHDGSPATNNLSHTINIPTDRSGYHIVLAVWDVADTSNAFYNVIDINVNNKNASSQVFGPFL
# How the values were obtained:
# Assay in all cases: glycan array binding signal (z-score within array); higher = stronger binding
# Details in all cases: glycan notation: IUPAC condensed, linker removed
# [1] = target: Gal(b1-4)GlcNAc(b1-2)Man(a1-6)[GlcNAc(b1-2)Man(a1-3)]Man(b1-4)GlcNAc(b1-4)GlcNAc
# How it was run: (§1)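 The binding signal is a Z-score computed within each array and averaged over linkers. Arrays of the same protein sequence at different concentrations or buffers were also averaged together. Data originate from 3228 arrays in the Consortium for Functional Glycomics database, kept only where the protein sequence was available.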
# [2] = target: Gal(b1-4)GlcNAc(b1-2)Man(a1-6)[Man(a1-3)]Man(b1-4)GlcNAc(b1-4)GlcNAc
# How it was run: as §1
# [3] = target: Gal(b1-4)GlcNAc(b1-2)[Gal(b1-4)GlcNAc(b1-4)]Man(a1-3)[Gal(b1-4)GlcNAc(b1-2)Man(a1-6)]Man(b1-4)GlcNAc(b1-4)GlcNAc
# How it was run: as §1
# [4] = target: Gal(b1-4)GlcNAc(b1-2)[Gal(b1-4)GlcNAc(b1-4)]Man(a1-3)[Gal(b1-4)GlcNAc(b1-2)[Gal(b1-4)GlcNAc(b1-6)]Man(a1-6)]Man(b1-4)GlcNAc(b1-4)GlcNAc
# How it was run: as §1
# [5] = target: Gal(b1-4)GlcNAc(b1-2)[Gal(b1-4)GlcNAc(b1-4)]Man(a1-3)[GlcNAc(b1-4)][Gal(b1-4)GlcNAc(b1-2)Man(a1-6)]Man(b1-4)GlcNAc(b1-4)GlcNAc
# How it was run: as §1
# [6] = target: Gal(b1-4)GlcNAc(b1-2)[Gal(b1-4)GlcNAc(b1-4)]Man(a1-3)[GlcNAc(b1-4)][Gal(b1-4)GlcNAc(b1-2)[Gal(b1-4)GlcNAc(b1-6)]Man(a1-6)]Man(b1-4)GlcNAc(b1-4)GlcNAc
# How it was run: as §1
# [7] = target: Gal(b1-4)GlcNAc(b1-2)[Gal(b1-4)GlcNAc(b1-6)]Man(a1-6)[Gal(b1-4)GlcNAc(b1-2)Man(a1-3)]Man(b1-4)GlcNAc(b1-4)GlcNAc
# How it was run: as §1
# [8] = target: Gal(b1-4)GlcNAc(b1-2)[Gal(b1-4)GlcNAc(b1-6)]Man(a1-6)[Gal(b1-4)GlcNAc(b1-2)Man(a1-3)]Man(b1-4)GlcNAc(b1-4)[Fuc(a1-6)]GlcNAc
# How it was run: as §1
# [9] = target: Gal(b1-4)GlcNAc(b1-2)[Gal(b1-4)GlcNAc(b1-6)]Man(a1-6)[GlcNAc(b1-4)][Gal(b1-4)GlcNAc(b1-2)Man(a1-3)]Man(b1-4)GlcNAc(b1-4)GlcNAc
# How it was run: as §1
# [10] = target: Gal(b1-4)GlcNAc(b1-2)[Gal(b1-4)GlcNAc(b1-6)]Man(a1-6)[GlcNAc(b1-4)][Gal(b1-4)GlcNAc(b1-2)[Gal(b1-4)GlcNAc(b1-4)]Man(a1-3)]Man(b1-4)GlcNAc(b1-4)[Fuc(a1-6)]GlcNAc
# How it was run: as §1
# [11] = target: Gal(b1-4)GlcNAc(b1-3)Gal(b1-3)GalNAc
# How it was run: as §1
# [12] = target: Gal(b1-4)GlcNAc(b1-3)Gal(b1-3)GlcNAc
# How it was run: as §1
# [13] = target: Gal(b1-4)GlcNAc(b1-3)Gal(b1-4)Glc
# How it was run: as §1
# [14] = target: Gal(b1-4)GlcNAc(b1-3)Gal(b1-4)GlcNAc
# How it was run: as §1
# [15] = target: Gal(b1-4)GlcNAc(b1-3)Gal(b1-4)GlcNAc(b1-2)Man(a1-3)[Gal(b1-4)GlcNAc(b1-3)Gal(b1-4)GlcNAc(b1-2)Man(a1-6)]Man(b1-4)GlcNAc(b1-4)GlcNAc
# How it was run: as §1
# [16] = target: Gal(b1-4)GlcNAc(b1-3)Gal(b1-4)GlcNAc(b1-2)Man(a1-3)[Gal(b1-4)GlcNAc(b1-3)Gal(b1-4)GlcNAc(b1-2)Man(a1-6)]Man(b1-4)GlcNAc(b1-4)[Fuc(a1-6)]GlcNAc
# How it was run: as §1
# [17] = target: Gal(b1-4)GlcNAc(b1-3)Gal(b1-4)GlcNAc(b1-2)[Gal(b1-4)GlcNAc(b1-3)Gal(b1-4)GlcNAc(b1-6)]Man(a1-6)[Gal(b1-4)GlcNAc(b1-3)Gal(b1-4)GlcNAc(b1-2)Man(a1-3)]Man(b1-4)GlcNAc(b1-4)GlcNAc
# How it was run: as §1
# [18] = target: Gal(b1-4)GlcNAc(b1-3)Gal(b1-4)GlcNAc(b1-2)[Gal(b1-4)GlcNAc(b1-3)Gal(b1-4)GlcNAc(b1-6)]Man(a1-6)[Gal(b1-4)GlcNAc(b1-3)Gal(b1-4)GlcNAc(b1-2)Man(a1-3)]Man(b1-4)GlcNAc(b1-4)[Fuc(a1-6)]GlcNAc
# How it was run: as §1
# [19] = target: Gal(b1-4)GlcNAc(b1-3)Gal(b1-4)GlcNAc(b1-3)Gal(b1-4)GlcNAc
# How it was run: as §1
# [20] = target: Gal(b1-4)GlcNAc(b1-3)Gal(b1-4)GlcNAc(b1-3)Gal(b1-4)GlcNAc(b1-2)Man(a1-3)[Gal(b1-4)GlcNAc(b1-3)Gal(b1-4)GlcNAc(b1-3)Gal(b1-4)GlcNAc(b1-2)Man(a1-6)]Man(b1-4)GlcNAc(b1-4)GlcNAc
# How it was run: as §1
# [21] = target: Gal(b1-4)GlcNAc(b1-3)Gal(b1-4)GlcNAc(b1-3)Gal(b1-4)GlcNAc(b1-2)Man(a1-3)[Gal(b1-4)GlcNAc(b1-3)Gal(b1-4)GlcNAc(b1-3)Gal(b1-4)GlcNAc(b1-2)Man(a1-6)]Man(b1-4)GlcNAc(b1-4)[Fuc(a1-6)]GlcNAc
# How it was run: as §1
# [22] = target: Gal(b1-4)GlcNAc(b1-3)Gal(b1-4)GlcNAc(b1-3)Gal(b1-4)GlcNAc(b1-2)[Gal(b1-4)GlcNAc(b1-3)Gal(b1-4)GlcNAc(b1-3)Gal(b1-4)GlcNAc(b1-6)]Man(a1-6)[Gal(b1-4)GlcNAc(b1-3)Gal(b1-4)GlcNAc(b1-3)Gal(b1-4)GlcNAc(b1-2)Man(a1-3)]Man(b1-4)GlcNAc(b1-4)[Fuc(a1-6)]GlcNAc
# How it was run: as §1
binder,measurement,setting,value
B1,glycan array binding signal (z-score),[1],-0.512
same,glycan array binding signal (z-score),[2],-1.01
same,glycan array binding signal (z-score),[3],-0.458
same,glycan array binding signal (z-score),[4],-0.445
same,glycan array binding signal (z-score),[5],-0.283
same,glycan array binding signal (z-score),[6],-0.148
same,glycan array binding signal (z-score),[7],-0.525
same,glycan array binding signal (z-score),[8],-0.269
same,glycan array binding signal (z-score),[9],-0.433
same,glycan array binding signal (z-score),[10],-0.622
same,glycan array binding signal (z-score),[11],-0.224
same,glycan array binding signal (z-score),[12],-0.158
same,glycan array binding signal (z-score),[13],0.254
same,glycan array binding signal (z-score),[14],-0.705
same,glycan array binding signal (z-score),[15],-0.103
same,glycan array binding signal (z-score),[16],0.511
same,glycan array binding signal (z-score),[17],0.114
same,glycan array binding signal (z-score),[18],-0.441
same,glycan array binding signal (z-score),[19],-0.608
same,glycan array binding signal (z-score),[20],0.138
same,glycan array binding signal (z-score),[21],0.764
same,glycan array binding signal (z-score),[22],-1.02
